Data from publication PMC5038302 (Antimicrobial Agents and Chemotherapy, 2016).

Tested on: SPM-1
Assay: Hydrolysis of avibactam followed by UV-Vis spectroscopy (230 nm)
Type: biochemical
Details: 1 mM avibactam, 5 mM HEPES pH 7.5, 20 μM ZnCl2, 30°C
Protocol: A spectrum between 210 and 280 nm was then immediately recorded. After 20 h at 20°C, another spectrum was recorded; the appearance of this spectrum was not modified after further incubation. […] Two buffers were used: 5 mM HEPES (pH 7.5) and 50 mM cacodylate (pH 7.0), both containing 20 μM ZnCl2. […] Due to the low activity observed with NDM-1, incubation was continued overnight (20 h) ([23]).
For kinetic analyses, we first employed a spectroscopic assay for avibactam hydrolysis. […] With CphA, the ZnCl2 concentration was reduced to 1 μM since the binding of a second Zn(II) ion is inhibitory for most B2 MBLs ([38], [39]). […] Due to the very low activity observed with NDM-1, incubation was continued overnight (20 h). Because of the very low reaction rates, it was not possible to directly determine the Km and v values.

NC(=O)[C@@H]1CC[C@@H]2CN1C(=O)N2OS(=O)(=O)O [avibactam]
v0/E0, HEPES buffer: 1 ± 0.2 min⁻¹
